Test results taken from US5589568A (priority 1994, dated 1996).
At least one peptide structure holds a part that was inferred or is arguable (an end, a ring closure or a residue). Where a SMILES comes first, the peptide text is derived from it. The star is where a group is joined. Dodecyl = CCCCCCCCCCCC*

Assays:
[1] = test system: Gi; assay: steady state GTPase activity of Gi in phospholipid vesicles; type: biochemical, rabbit; conditions: Table VI, receptor-based peptides; for EC50: read-out: Gi af. (apparent affinity, estimated by EC50 of GTPase activity)
[2] = biological target: Gs (Homo sapiens, UniProt P63092); assay: steady state GTPase activity of Gs; type: biochemical; conditions: Table VI, receptor-based peptides; for EC50: read-out: Gs af. (apparent affinity, estimated by EC50 of GTPase activity)
Gs, sequence (P63092 whole entry): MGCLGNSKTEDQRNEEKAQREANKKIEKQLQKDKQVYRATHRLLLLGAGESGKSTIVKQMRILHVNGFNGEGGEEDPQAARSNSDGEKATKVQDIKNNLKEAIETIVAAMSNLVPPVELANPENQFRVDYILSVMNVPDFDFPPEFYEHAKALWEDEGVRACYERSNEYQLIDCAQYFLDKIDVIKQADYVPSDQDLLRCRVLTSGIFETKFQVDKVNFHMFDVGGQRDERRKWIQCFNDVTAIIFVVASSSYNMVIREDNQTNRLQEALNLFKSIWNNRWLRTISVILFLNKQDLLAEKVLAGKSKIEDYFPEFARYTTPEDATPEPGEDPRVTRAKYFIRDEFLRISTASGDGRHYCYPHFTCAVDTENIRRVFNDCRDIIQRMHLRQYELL
Procedure: Methods for the assay of steady state GTP hydrolysis and GTPγS binding have been described previously by Higashijima, 1987, and Ferguson, 1986, and incorporated herein by reference. Unless noted otherwise, assays of steady state GTP hydrolysis and of the binding and dissociation of guanine nucleotides were carried out in the buffer described previously, but without detergent and with 1.1 mM MgSO4 and the nucleotide specified in the text. When necessary, the concentration of free Mg^2+ was adjusted using EDTA buffers as described previously by Higashijima, 1987, and incorporated herein by reference.
The data set forth in the following tables represent data generated by the inventors employing the steady state GTP hydrolysis, expressed as molar turnover numbers, are described herein under the "Assay" section of the Experimental Procedures in Example 1. The data has been classified according to the criteria outlined below and the effects of each peptide and modified variant on Go, Gi, and Gs have been tabulated. Table III below sets forth data generated for various mastoparan analogues designed by the inventors, in comparison with the various naturally-occurring mastoparans (e.g., MP, MP-A and MP-T). Table IV sets forth similar data generated for various receptor-based peptides designed by the inventors based on a consideration of various G-protein linked receptors.
Apparent affinity (af.) and apparent efficacy (ef.) were estimated by EC50 and maximum turnover number of GTPase activity.

[3] = biological target: T1, Go (Bos taurus, UniProt P08239); assay: steady state GTPase activity of Go in phospholipid vesicles; type: biochemical, bovine; conditions: Table VI, receptor-based peptides; for EC50: read-out: Go af. (apparent affinity, estimated by EC50 of GTPase activity)
T1 construct: proteins were extracted from bovine cerebral cortical membranes; from tissue; host or cells: bovine brain (cerebral cortical membranes)
T1 sequence (P08239 2-354 limits assumed): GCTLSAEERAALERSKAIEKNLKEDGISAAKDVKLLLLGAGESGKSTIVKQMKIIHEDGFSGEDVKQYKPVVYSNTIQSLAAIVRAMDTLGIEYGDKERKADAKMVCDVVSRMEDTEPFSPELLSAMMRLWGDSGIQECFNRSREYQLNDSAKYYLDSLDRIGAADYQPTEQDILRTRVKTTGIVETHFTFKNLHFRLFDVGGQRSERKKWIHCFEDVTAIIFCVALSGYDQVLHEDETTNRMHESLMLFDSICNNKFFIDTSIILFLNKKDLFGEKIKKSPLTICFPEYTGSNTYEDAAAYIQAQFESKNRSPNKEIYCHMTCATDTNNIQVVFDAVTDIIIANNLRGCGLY
T1 sequence (P62871 2-340 partner limits assumed): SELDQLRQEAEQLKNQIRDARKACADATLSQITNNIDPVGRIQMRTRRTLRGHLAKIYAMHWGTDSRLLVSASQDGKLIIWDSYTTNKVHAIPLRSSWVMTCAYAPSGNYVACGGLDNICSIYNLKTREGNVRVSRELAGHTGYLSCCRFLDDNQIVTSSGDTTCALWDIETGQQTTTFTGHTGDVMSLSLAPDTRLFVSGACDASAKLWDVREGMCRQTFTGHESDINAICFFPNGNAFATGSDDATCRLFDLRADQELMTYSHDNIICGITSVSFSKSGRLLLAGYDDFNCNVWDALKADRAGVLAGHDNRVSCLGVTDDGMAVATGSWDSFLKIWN
T1 sequence (P63212 2-68 partner limits assumed): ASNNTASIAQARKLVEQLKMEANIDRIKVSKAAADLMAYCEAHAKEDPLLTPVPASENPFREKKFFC

Compound | Gi ef. (apparent efficacy, maximum turnover number of GTPase activity) [1] | EC50 [1] | Gs ef. (apparent efficacy, maximum turnover number of GTPase activity) [2] | EC50 [2] | Go ef. (apparent efficacy, maximum turnover number of GTPase activity) [3] | EC50 [3]
CCCCCCCCCCCCSC[C@H](N)C(=O)N[C@H](C(=O)N[C@@H](Cc1ccc(O)cc1)C(=O)N[C@@H](CCCNC(=N)N)C(=O)N[C@@H](CCC(=O)O)C(=O)N[C@H](C(=O)N[C@@H](CCC(=O)O)C(=O)N[C@@H](CC(N)=O)C(=O)N[C@@H](CCCNC(=N)N)C(=O)N[C@@H](C)C(=O)N[C@@H](CCCNC(=N)N)C(=O)N[C@@H](CCC(=O)O)C(=O)N[C@@H](CC(C)C)C(=O)N[C@@H](C)C(=O)N[C@@H](C)C(=O)N[C@@H](CC(C)C)C(=O)N[C@@H](CCC(N)=O)C(=O)NCC(=O)N[C@@H](CO)C(=O)N[C@@H](CCC(=O)O)C(=O)N[C@H](C(=O)N[C@H](C(=O)N[C@@H](CC(C)C)C(N)=O)[C@@H](C)CC)[C@@H](C)O)[C@@H](C)O)[C@@H](C)CC [C12-ER33] (H-C(Dodecyl)IYRETENRARELAALQGSETIL-NH2) | P (Poor (P): less than 2 fold) | > 100 µM | P (Poor (P): less than 2 fold) | > 100 µM | P (Poor (P): less than 2 fold) | > 100 µM
CCCCCCCCCCCCSC[C@H](N)C(=O)N[C@H](C(=O)N[C@@H](Cc1ccc(O)cc1)C(=O)N[C@H](C(=O)N[C@H](C(=O)N[C@@H](C)C(=O)N[C@@H](CCCCN)C(=O)N[C@@H](CCCNC(=N)N)C(=O)N[C@H](C(=O)N[C@H](C(=O)N[C@@H](CCCCN)C(=O)N[C@@H](CC(N)=O)C(=O)N[C@@H](CC(C)C)C(=O)N[C@@H](CCC(=O)O)C(=O)N[C@@H](C)C(=O)NCC(=O)N[C@H](C(=O)N[C@@H](CCSC)C(=O)N[C@@H](CCCCN)C(=O)N[C@@H](CCC(=O)O)C(=O)N[C@H](C(=O)N[C@@H](CC(C)C)C(N)=O)[C@@H](C)CC)C(C)C)[C@@H](C)O)[C@@H](C)O)C(C)C)[C@@H](C)CC)C(C)C [C12-ER34] (H-C(Dodecyl)VYIVAKRTTKNLEAGVMKEIL-NH2) | G (Good (G): 5-10 fold) | 3 to 10 µM | G (Good (G): 5-10 fold) | 30 to 100 µM | G (Good (G): 5-10 fold) | < 3 µM
CCCCCCCCCCCCSC[C@H](N)C(=O)N[C@H](C(=O)N[C@@H](Cc1ccc(O)cc1)C(=O)N[C@H](C(=O)N[C@H](C(=O)N[C@@H](C)C(=O)N[C@@H](CCCCN)C(=O)N[C@@H](CCCNC(=N)N)C(=O)N[C@H](C(=O)N[C@H](C(=O)N[C@@H](CCCCN)C(=O)N[C@@H](CC(N)=O)C(=O)N[C@@H](CC(C)C)C(=O)N[C@@H](CCC(=O)O)C(=O)N[C@H](C(=O)N[C@@H](CC(C)C)C(N)=O)[C@@H](C)CC)[C@@H](C)O)[C@@H](C)O)C(C)C)[C@@H](C)CC)C(C)C [C12-ER35] (H-C(Dodecyl)VYIVAKRTTKNLEIL-NH2) | F (Fair (F): 2-5 fold) | 10 to 30 µM | F (Fair (F): 2-5 fold) | 10 to 30 µM | F (Fair (F): 2-5 fold) | 10 to 30 µM
CCCCCCCCCCCCSC[C@H](N)C(=O)N[C@H](C(=O)N[C@@H](Cc1ccccc1)C(=O)N[C@@H](CCC(N)=O)C(=O)N[C@H](C(=O)N[C@@H](C)C(=O)N[C@@H](CCCCN)C(=O)N[C@@H](CCCNC(=N)N)C(=O)N[C@@H](CCC(N)=O)C(=O)N[C@@H](CC(C)C)C(=O)N[C@@H](CCC(N)=O)C(=O)N[C@@H](CCCCN)C(=O)N[C@H](C(=O)N[C@@H](CC(=O)O)C(=O)N[C@@H](CCCCN)C(=O)N[C@H](C(=O)N[C@@H](CC(C)C)C(N)=O)C(C)C)[C@@H](C)CC)C(C)C)C(C)C [C12-ER36] (H-C(Dodecyl)VFQVAKRQLQKIDKVL-NH2) | G (Good (G): 5-10 fold) | < 3 µM | G (Good (G): 5-10 fold) | 3 to 10 µM | G (Good (G): 5-10 fold) | < 3 µM
CCCCCCCCCCCCSC[C@H](N)C(=O)N1CCC[C@H]1C(=O)N[C@@H](CC(C)C)C(=O)N[C@@H](CO)C(=O)N[C@@H](Cc1ccc(O)cc1)C(=O)N[C@@H](CCCNC(=N)N)C(=O)N[C@@H](C)C(=O)N[C@@H](CCCCN)C(=O)N[C@@H](CCCNC(=N)N)C(=O)N[C@H](C(=O)N1CCC[C@H]1C(=O)N[C@@H](CCCNC(=N)N)C(=O)N[C@@H](CCCNC(=N)N)C(=O)N[C@@H](C)C(=O)N[C@@H](C)C(=O)N[C@@H](CC(C)C)C(=O)N[C@@H](CCSC)C(N)=O)[C@@H](C)O [C12-ER38] (H-C(Dodecyl)PLSYRAKRTPRRAALM-NH2) | G (Good (G): 5-10 fold) | 3 to 10 µM | P (Poor (P): less than 2 fold) | 30 to 100 µM | F (Fair (F): 2-5 fold) | 10 to 30 µM
CCCCCCCCCCCCSC[C@H](NC(=O)[C@@H](NC(=O)[C@@H](NC(=O)CNC(=O)[C@H](CC(C)C)NC(=O)[C@@H](NC(=O)[C@H](CCCCN)NC(=O)[C@H](CC(C)C)NC(=O)[C@H](C)NC(=O)[C@H](CCCCN)NC(=O)[C@H](Cc1c[nH]cn1)NC(=O)[C@H](CCC(=O)O)NC(=O)[C@@H](N)CCCNC(=N)N)[C@@H](C)O)[C@@H](C)CC)[C@@H](C)CC)C(N)=O [C12-ER40] (H-REHKALKTLGIIC(Dodecyl)-NH2) | G (Good (G): 5-10 fold) | 3 to 10 µM | F (Fair (F): 2-5 fold) |  | F (Fair (F): 2-5 fold) | 
CCCCCCCCCCCCSC[C@H](N)C(=O)N[C@H](C(=O)N[C@@H](Cc1ccc(O)cc1)C(=O)N[C@@H](CCCNC(=N)N)C(=O)N[C@@H](CCC(=O)O)C(=O)N[C@@H](C)C(=O)N[C@@H](CCCCN)C(=O)N[C@@H](CCC(=O)O)C(=O)N[C@@H](CCC(N)=O)C(=O)N[C@H](C(=O)N[C@@H](CCCNC(=N)N)C(=O)N[C@@H](CCCCN)C(=O)N[C@H](C(=O)N[C@@H](CC(=O)O)C(=O)N[C@@H](CCCNC(=N)N)C(N)=O)[C@@H](C)CC)[C@@H](C)CC)C(C)C [C12-ER43] (H-C(Dodecyl)VYREAKEQIRKIDR-NH2) | F (Fair (F): 2-5 fold) | 10 to 30 µM | F (Fair (F): 2-5 fold) | 10 to 30 µM | F (Fair (F): 2-5 fold) | 10 to 30 µM
CCCCCCCCCCCCSC[C@H](N)C(=O)N[C@H](C(=O)N[C@@H](CO)C(=O)N[C@@H](CCCNC(=N)N)C(=O)N[C@@H](C)C(=O)N[C@@H](CO)C(=O)N[C@@H](CCCCN)C(=O)N[C@@H](CO)C(=O)N[C@@H](CCCNC(=N)N)C(=O)N[C@H](C(=O)N[C@@H](CCCCN)C(=O)N[C@@H](CCCCN)C(=O)N[C@@H](CC(=O)O)C(=O)N[C@@H](CCCCN)C(=O)N[C@@H](CCCCN)C(=O)N[C@@H](CCC(=O)O)C(=O)N1CCC[C@H]1C(=O)N[C@H](C(=O)N[C@@H](C)C(=O)N[C@H](C(=O)N[C@@H](CC(C)C)C(N)=O)[C@@H](C)CC)C(C)C)[C@@H](C)CC)[C@@H](C)CC [C12-ER44] (H-C(Dodecyl)ISRASKSRIKKDKKEPVAIL-NH2) | F (Fair (F): 2-5 fold) | 3 to 10 µM | F (Fair (F): 2-5 fold) | 30 to 100 µM | F (Fair (F): 2-5 fold) | < 3 µM
CCCCCCCCCCCCSC[C@H](N)C(=O)N[C@H](C(=O)N[C@@H](CO)C(=O)N[C@@H](CCCNC(=N)N)C(=O)N[C@@H](C)C(=O)N[C@@H](CO)C(=O)N[C@@H](CCCCN)C(=O)N[C@@H](CO)C(=O)N[C@@H](CCCNC(=N)N)C(=O)N[C@H](C(=O)N[C@@H](CCCCN)C(=O)N[C@@H](CCCCN)C(=O)N[C@@H](CC(=O)O)C(=O)N[C@@H](CCCCN)C(=O)N[C@@H](CCCCN)C(=O)N[C@H](C(=O)N[C@@H](CC(C)C)C(N)=O)[C@@H](C)CC)[C@@H](C)CC)[C@@H](C)CC [C12-ER45] (H-C(Dodecyl)ISRASKSRIKKDKKIL-NH2) | F (Fair (F): 2-5 fold) | 3 to 10 µM | F (Fair (F): 2-5 fold) | 30 to 100 µM | F (Fair (F): 2-5 fold) | 10 to 30 µM
